Measured values: the supplement of paper PMC8728848
The list shows a part of the results.

Columns and labels:
Test in all cases: glycan array binding signal (z-score within array); higher = stronger binding
Settings in all cases: glycan notation: IUPAC condensed, linker removed
Neu5Ac(a2-8)Neu5Ac = biological target: Neu5Ac(a2-8)Neu5Ac
Outline: (§1)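 Arrays were curated from the Consortium for Functional Glycomics database, 3228 in total, and kept only where the protein sequence was available. Binding is expressed as a within-array Z-score. This score was averaged across arrays of the same protein sequence at different concentrations or buffers and across linkers, and negative values can be read as non-binding.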

[1] = biological target: Neu5Ac(a2-8)Neu5Ac(a2-3)Gal(b1-3)GalNAc(b1-4)[Neu5Ac(a2-3)]Gal(b1-4)Glc
Outline: as §1

[2] = biological target: Neu5Ac(a2-8)Neu5Ac(a2-3)Gal(b1-3)GalNAc(b1-4)[Neu5Ac(a2-8)Neu5Ac(a2-3)]Gal(b1-4)Glc
Outline: as §1

[3] = biological target: Neu5Ac(a2-8)Neu5Ac(a2-3)Gal(b1-4)Glc
Outline: as §1

[4] = biological target: Neu5Ac(a2-8)Neu5Ac(a2-3)Gal(b1-4)GlcNAc
Outline: as §1

[5] = biological target: Neu5Ac(a2-8)Neu5Ac(a2-3)[Gal(b1-3)GalNAc(b1-4)]Gal(b1-4)Glc
Outline: as §1

[6] = biological target: Neu5Ac(a2-8)Neu5Ac(a2-3)[GalNAc(b1-4)]Gal(b1-4)Glc
Outline: as §1

[7] = biological target: Neu5Ac(a2-8)Neu5Ac(a2-8)Neu5Ac
Outline: as §1

[8] = biological target: Neu5Ac(a2-8)Neu5Ac(a2-8)Neu5Ac(a2-3)Gal(b1-4)Glc
Outline: as §1

[9] = biological target: Neu5Ac(a2-8)Neu5Ac(a2-8)Neu5Ac(a2-3)[Gal(b1-3)GalNAc(b1-4)]Gal(b1-4)Glc
Outline: as §1

[10] = biological target: Neu5Ac(a2-8)Neu5Ac(a2-8)Neu5Ac(a2-3)[GalNAc(b1-4)]Gal(b1-4)Glc
Outline: as §1

[11] = biological target: Neu5Ac(a2-8)Neu5Ac(a2-8)Neu5Ac(a2-8)Neu5Ac(a2-3)[GalNAc(b1-4)]Gal(b1-4)Glc
Outline: as §1

[12] = biological target: Neu5Ac(a2-8)Neu5Gc(a2-3)Gal(b1-4)GlcNAc
Outline: as §1

[13] = biological target: Neu5Ac(b2-6)Gal(b1-4)GlcNAc
Outline: as §1

Neu5Ac(b2-6)GalNAc = biological target: Neu5Ac(b2-6)GalNAc
Outline: as §1

[14] = biological target: Neu5Ac9Ac(a2-3)Gal(b1-4)GlcNAc
Outline: as §1

[15] = biological target: Neu5Ac9Ac(a2-6)Gal(b1-4)GlcNAc
Outline: as §1

[16] = biological target: Neu5Gc(a2-3)Gal(b1-3)GlcNAc
Outline: as §1

[17] = biological target: Neu5Gc(a2-3)Gal(b1-3)[Fuc(a1-4)]GlcNAc
Outline: as §1

Neu5Gc(a2-3)Gal(b1-4)Glc = biological target: Neu5Gc(a2-3)Gal(b1-4)Glc
Outline: as §1

[18] = biological target: Neu5Gc(a2-3)Gal(b1-4)GlcNAc
Outline: as §1

[19] = biological target: Neu5Gc(a2-3)Gal(b1-4)GlcNAc(b1-3)Gal(b1-4)GlcNAc(b1-2)Man(a1-3)[Neu5Gc(a2-3)Gal(b1-4)GlcNAc(b1-3)Gal(b1-4)GlcNAc(b1-2)Man(a1-6)]Man(b1-4)GlcNAc(b1-4)GlcNAc
Outline: as §1

[20] = biological target: Neu5Gc(a2-3)Gal(b1-4)[Fuc(a1-3)]GlcNAc
Outline: as §1

[21] = biological target: Neu5Gc(a2-6)Gal(b1-4)GlcNAc
Outline: as §1

Neu5Gc(a2-6)GalNAc = biological target: Neu5Gc(a2-6)GalNAc
Outline: as §1

[22] = biological target: Neu5Gc(a2-8)Neu5Ac(a2-3)Gal(b1-4)GlcNAc
Outline: as §1

[23] = biological target: Neu5Gc(a2-8)Neu5Gc(a2-3)Gal(b1-4)GlcNAc
Outline: as §1

[24] = biological target: Neu5Gc(a2-8)Neu5Gc(a2-3)Gal(b1-4)GlcNAc(b1-3)Gal(b1-4)GlcNAc
Outline: as §1

[25] = biological target: Neu5Gc(a2-8)Neu5Gc(a2-6)Gal(b1-4)GlcNAc
Outline: as §1

[26] = biological target: Neu5Gc(b2-6)Gal(b1-4)GlcNAc
Outline: as §1

B1: Fm1D (Escherichia coli) (protein)
chain: FSCNVDGGSSIGAGTTSVYVNLDPVIQPGQNLVVDLSQHISCWNDYGGWYDTDHINLVQGSAFAGSLQSYKGSLYWNNVTYPFPLTTNTNVLDIGDKTPMPLPLKLYITPVGAAGGVVIKAGEVIARIHMYKIATLGSGNPRNFTWNIISNNSVVMPTHHHHHH
- glycan array binding signal (z-score) (Neu5Ac(a2-8)Neu5Ac): -0.144
- glycan array binding signal (z-score) [1]: -0.149
- glycan array binding signal (z-score) [2]: -0.134
- glycan array binding signal (z-score) [3]: -0.143
- glycan array binding signal (z-score) [4]: -0.145
- glycan array binding signal (z-score) [5]: -0.147
- glycan array binding signal (z-score) [6]: -0.149
- glycan array binding signal (z-score) [7]: -0.147
- glycan array binding signal (z-score) [8]: -0.141
- glycan array binding signal (z-score) [9]: -0.14
- glycan array binding signal (z-score) [10]: -0.152
- glycan array binding signal (z-score) [11]: -0.146
- glycan array binding signal (z-score) [12]: -0.15
- glycan array binding signal (z-score) [13]: -0.142
- glycan array binding signal (z-score) (Neu5Ac(b2-6)GalNAc): -0.145
- glycan array binding signal (z-score) [14]: -0.15
- glycan array binding signal (z-score) [15]: -0.147
- glycan array binding signal (z-score) [16]: -0.138
- glycan array binding signal (z-score) [17]: -0.144
- glycan array binding signal (z-score) (Neu5Gc(a2-3)Gal(b1-4)Glc): -0.146
- glycan array binding signal (z-score) [18]: -0.146
- glycan array binding signal (z-score) [19]: -0.139
- glycan array binding signal (z-score) [20]: -0.148
- glycan array binding signal (z-score) [21]: -0.144
- glycan array binding signal (z-score) (Neu5Gc(a2-6)GalNAc): -0.143
- glycan array binding signal (z-score) [22]: -0.149
- glycan array binding signal (z-score) [23]: -0.146
- glycan array binding signal (z-score) [24]: -0.151
- glycan array binding signal (z-score) [25]: -0.146
- glycan array binding signal (z-score) [26]: -0.143
